Results published in a collection of fitness landscapes (doi:10.1126/science.1257360).
The other results are listed elsewhere or left out.

B1: PhoQ; a variant is named by its letters at X, in order, P23837 (parent)
chain: MKKLLRLFFPLSLRVRFLLATAAVVLVLSLAYGMVALIGYSVSFDKTTFRLLRGESNLFYTLAKWENNKLHVELPENIDKQSPTMTLIYDENGQLLWAQRDVPWLMKMIQPDWLKSNGFHEIEADVNDTSLLLSGDHSIQQQLQEVREDDDDAEMTHSVAVNVYPATSRMPKLTIVVVDTIPVELKSSYMVWSWFIYVLSANLLLVIPLLWVAAWWSLRPIEALAKEVRELEEHNRELLNPATTRELTSLVRNLNRLLKSERERYDKYRTTLTDLTHSLKTPLXXLQXXLRSLRSEKMSVSDAEPVMLEQISRISQQIGYYLHRASMRGGTLLSRELHPVAPLLDNLTSALNKVYQRKGVNISLDISPEISFVGEQNDFVEVMGNVLDNACKYCLEFVEISARQTDEHLYIVVEDDGPGIPLSKREVIFDRGQRVDTLRPGQGVGLAVAREITEQYEGKIVAGESMLGGARMEVIFGRQHSAPKDE

Variants of: B1
Experiment: enrichment ratio after two sorts for PhoP signalling (ratio (wild type AVST 3.29)); higher = more functional
Conditions: with PhoP (E. coli)

Point of comparison: TKTF, enrichment ratio 2.46. Against it:
- HMYI — lower, ≤ 0.25
- KSWY — lower, ≤ 0.25
- HRYL — lower, ≤ 0.25
- NNGN — lower, ≤ 0.25
- STKI — lower, ≤ 0.25
- VFLR — lower, ≤ 0.25
- HRSA — lower, ≤ 0.25
- SVPN — lower, ≤ 0.25
- MRDT — lower, ≤ 0.25
- DETL — lower, ≤ 0.25
- PSFD — lower, ≤ 0.25
- KCFG — lower, ≤ 0.25
- AREV — lower, ≤ 0.25
- DNTY — lower, ≤ 0.25
- DILP — lower, ≤ 0.25
- DDPW — lower, ≤ 0.25
- VWER — lower, ≤ 0.25
- ACVQ — lower, 2.26
- ECRR — lower, ≤ 0.25
- VFFC — lower, ≤ 0.25
- GKTM — lower, 1.84
- RITG — lower, ≤ 0.25
- HNFL — lower, ≤ 0.25
- NRPP — lower, ≤ 0.25
- SCCD — higher, 16.2
- LLGD — lower, ≤ 0.25
- ASFM — higher, 6.83
- LHWM — lower, ≤ 0.25
- YAGI — lower, ≤ 0.25
- AWPP — lower, ≤ 0.25
- SQKS — lower, ≤ 0.25
- YGNQ — lower, ≤ 0.25
- TGYK — lower, ≤ 0.25
- FVKI — lower, ≤ 0.25
- MRAH — lower, ≤ 0.25
- PPYI — lower, ≤ 0.25
- PICI — lower, ≤ 0.25
- IKEH — lower, ≤ 0.25
- ISQQ — lower, ≤ 0.25
- VMAM — lower, 1.87
- NRNL — lower, ≤ 0.25
- EVFL — lower, ≤ 0.25
- AISA — higher, 10.4
- NWPQ — lower, ≤ 0.25
- KATF — lower, ≤ 0.25
- TGIS — lower, ≤ 0.25
- IAFH — lower, ≤ 0.25
- HMIM — lower, ≤ 0.25
- FHWY — lower, ≤ 0.25
- DIFY — lower, ≤ 0.25
- VYLF — lower, ≤ 0.25
- TWDH — lower, ≤ 0.25
- NAWV — lower, ≤ 0.25
- EIKR — lower, ≤ 0.25
- QSWC — higher, 7.98
- QEWV — lower, ≤ 0.25
- LNNF — lower, ≤ 0.25
- PNRF — lower, ≤ 0.25
- IGMS — lower, ≤ 0.25
- THRH — lower, ≤ 0.25
- TPFM — lower, ≤ 0.25
- ISFC — lower, ≤ 0.25
- SQMV — higher, 22.1
- FWPS — lower, ≤ 0.25
- VGWF — lower, ≤ 0.25
- NCVH — lower, ≤ 0.25
- RTLM — lower, ≤ 0.25
- APKC — lower, ≤ 0.25
- GRWG — lower, ≤ 0.25
- LSIM — lower, ≤ 0.25
- GNDL — lower, ≤ 0.25
- NSYS — lower, ≤ 0.25
- QQKY — lower, ≤ 0.25
- MCGH — higher, 9.4
- HHDI — lower, ≤ 0.25
- WQEF — lower, ≤ 0.25
- GLHD — lower, ≤ 0.25
- FNEL — lower, ≤ 0.25
- ETAV — lower, ≤ 0.25
- DKPY — lower, ≤ 0.25
- NKAY — lower, ≤ 0.25
- ELFH — lower, ≤ 0.25
- FFQR — lower, ≤ 0.25
- HWEL — lower, ≤ 0.25
- KHSM — lower, ≤ 0.25
- LKKR — lower, ≤ 0.25
- VPYL — lower, ≤ 0.25
- YMWL — lower, ≤ 0.25
- LNMN — lower, ≤ 0.25
- FYYG — lower, ≤ 0.25
- YEAD — lower, ≤ 0.25
- MCGS — higher, 6.52
- DMWK — lower, ≤ 0.25
- FNNR — lower, ≤ 0.25
- QWSG — lower, ≤ 0.25
- GISN — higher, 10
- SEGH — higher, 6.63
- HNNP — lower, ≤ 0.25
- NGSY — lower, ≤ 0.25
- TKPM — lower, ≤ 0.25
- YNAQ — lower, ≤ 0.25
- LDSH — lower, ≤ 0.25
- FWMF — lower, ≤ 0.25
- FCHW — lower, ≤ 0.25
- ENTV — lower, ≤ 0.25
- PQPH — lower, ≤ 0.25
- AKLA — higher, 5.14
- HNWT — lower, ≤ 0.25
- NSWK — lower, ≤ 0.25
- YKWL — lower, ≤ 0.25
- KKKD — lower, ≤ 0.25
- VNQK — lower, ≤ 0.25
- FPSM — lower, ≤ 0.25
- VKPK — lower, ≤ 0.25
- DEMI — lower, ≤ 0.25
- WSAI — lower, ≤ 0.25
- KRCC — lower, ≤ 0.25
- AFTE — lower, ≤ 0.25
- FTVV — lower, ≤ 0.25
- DENV — lower, ≤ 0.25
- FSDH — lower, ≤ 0.25
- GAYP — lower, ≤ 0.25
- FPER — lower, ≤ 0.25
- MFSQ — lower, ≤ 0.25
- NYAC — lower, ≤ 0.25
- PDCC — lower, ≤ 0.25
- GHKH — lower, ≤ 0.25
- NAAF — lower, ≤ 0.25
- SHCY — higher, 6.35
- HEPV — lower, ≤ 0.25
- YIVK — lower, ≤ 0.25
- HWMR — lower, ≤ 0.25
- VPKQ — lower, ≤ 0.25
- SKFW — lower, ≤ 0.25
- YGEQ — lower, ≤ 0.25
- TLRC — lower, ≤ 0.25
- HPCM — lower, ≤ 0.25
- NIDK — lower, ≤ 0.25
- SPNT — lower, ≤ 0.25
- AASY — lower, ≤ 0.25
- IFEV — lower, ≤ 0.25
- LCSQ — lower, ≤ 0.25
- RVEV — lower, ≤ 0.25
- RWNA — lower, ≤ 0.25
- REHH — lower, ≤ 0.25
- MISY — lower, ≤ 0.25
- GRCR — lower, ≤ 0.25
- AWEN — lower, ≤ 0.25
- CLVS — lower, ≤ 0.25
- TVLW — lower, ≤ 0.25
- IKSP — lower, ≤ 0.25
- PYKK — lower, ≤ 0.25
- GLRE — lower, ≤ 0.25
- DGIH — lower, ≤ 0.25
- QSGL — higher, 4.64
- NTMI — lower, ≤ 0.25
- RQQA — lower, ≤ 0.25
- METM — higher, 4.44
- THAC — higher, 6.19
- HEVR — lower, ≤ 0.25
- PRED — lower, ≤ 0.25
- PDIY — lower, ≤ 0.25
- LRFD — lower, ≤ 0.25
- VKRE — lower, ≤ 0.25
- HSHT — lower, ≤ 0.25
- RGPM — lower, ≤ 0.25
- NVSK — lower, ≤ 0.25
- AFVH — lower, ≤ 0.25
- NCIK — lower, ≤ 0.25
- FHPI — lower, ≤ 0.25
- KQIP — lower, ≤ 0.25
- FEAF — lower, ≤ 0.25
- IINF — lower, ≤ 0.25
- YWPQ — lower, ≤ 0.25
- TTKD — lower, ≤ 0.25
- KQDH — lower, ≤ 0.25
- STDE — lower, ≤ 0.25
- KPMA — lower, ≤ 0.25
- FNII — lower, ≤ 0.25
- GYGQ — lower, ≤ 0.25
- VIEL — lower, ≤ 0.25
- RHGF — lower, ≤ 0.25
- HRTN — higher, 6.33
- YTHP — lower, ≤ 0.25
- DCSW — lower, ≤ 0.25
- YGAN — lower, ≤ 0.25
- LACK — lower, ≤ 0.25
- NIDC — lower, ≤ 0.25
- KPAF — lower, ≤ 0.25
- GLEI — lower, ≤ 0.25
- WLFF — lower, ≤ 0.25
- ETMY — lower, ≤ 0.25
- FKVC — lower, ≤ 0.25
- RENL — lower, ≤ 0.25
- LEYK — lower, ≤ 0.25
- KCGI — lower, ≤ 0.25
- EDNY — lower, ≤ 0.25
- ENPD — lower, ≤ 0.25
- AWIG — lower, ≤ 0.25
- QMFY — lower, ≤ 0.25
- ACTW — higher, 9.88
- PQRI — lower, ≤ 0.25
- EDFE — lower, ≤ 0.25
- HHWP — lower, ≤ 0.25
- HRWM — lower, ≤ 0.25
- YWTW — lower, ≤ 0.25
- KNQI — lower, ≤ 0.25
- MVAD — lower, ≤ 0.25
- ITMD — lower, ≤ 0.25
- RYMY — lower, ≤ 0.25
- TCWQ — higher, 8.73
- EGGC — lower, ≤ 0.25
- LLQA — lower, ≤ 0.25
- YTPG — lower, ≤ 0.25
- MMTQ — lower, ≤ 0.25
- EHCA — lower, ≤ 0.25
- ATCS — higher, 9.62
- GHYP — lower, ≤ 0.25
- MVEW — lower, ≤ 0.25
- MYFK — lower, ≤ 0.25
- HRRV — lower, ≤ 0.25
- HEFM — lower, 1.96
- YNFC — lower, ≤ 0.25
- EGST — lower, ≤ 0.25
- DQNH — lower, ≤ 0.25
- PFPH — lower, ≤ 0.25
- YKHP — lower, ≤ 0.25
- HHGY — lower, ≤ 0.25
- NEIT — lower, ≤ 0.25
- PEAK — lower, ≤ 0.25
- FAWP — lower, ≤ 0.25
- PMNY — lower, ≤ 0.25
- KMFP — lower, ≤ 0.25
- QLGL — lower, 1.09
- NTML — lower, ≤ 0.25
- TRYK — lower, ≤ 0.25
- MNHF — higher, 4.26
- SGMS — higher, 6.87
- KPFS — lower, ≤ 0.25
- GLLF — higher, 4.76
- GNSA — higher, 2.7
- PQNL — lower, ≤ 0.25
- EANT — lower, ≤ 0.25
- IGRH — lower, ≤ 0.25
- LYTM — lower, ≤ 0.25
- WRRW — lower, ≤ 0.25
- LGWE — lower, ≤ 0.25
- GLEH — lower, ≤ 0.25
- TKDC — lower, ≤ 0.25
- QVFP — lower, ≤ 0.25
- APVR — lower, ≤ 0.25
- HPTH — lower, ≤ 0.25
- ISPP — lower, ≤ 0.25
- QSRS — lower, ≤ 0.25
- SERF — lower, ≤ 0.25
- KAER — lower, ≤ 0.25
- TWPV — lower, ≤ 0.25
- QKLA — lower, ≤ 0.25
- REEQ — lower, ≤ 0.25
- VKVM — lower, ≤ 0.25
- LDVP — lower, ≤ 0.25
- IMML — lower, ≤ 0.25
- QFPN — lower, ≤ 0.25
- HNSF — lower, ≤ 0.25
- TEQY — higher, 12.5
- ATLK — higher, 17
- AHVR — lower, ≤ 0.25
- EALP — lower, 0.25
- PIPQ — lower, ≤ 0.25
- QKAA — lower, ≤ 0.25
- WRQW — lower, ≤ 0.25
- EAKY — lower, ≤ 0.25
- IFMN — lower, ≤ 0.25
- RSEH — lower, ≤ 0.25
- GTFN — lower, ≤ 0.25
- IDTN — lower, ≤ 0.25
- YKDC — lower, ≤ 0.25
- IMQS — lower, ≤ 0.25
- ISPF — lower, ≤ 0.25
- DNCG — lower, ≤ 0.25
- YIIP — lower, ≤ 0.25
- FCVF — lower, ≤ 0.25
- PIII — lower, ≤ 0.25
- RGCI — lower, ≤ 0.25
- VIEW — lower, ≤ 0.25
- FPWQ — lower, ≤ 0.25
- FMVS — lower, ≤ 0.25
- VDLL — lower, ≤ 0.25
- CFSI — lower, ≤ 0.25
- GVLS — lower, 2.28
- ESSW — lower, ≤ 0.25
- LENT — lower, ≤ 0.25
- MSKW — lower, ≤ 0.25
- SKED — lower, ≤ 0.25
- KCDD — lower, ≤ 0.25
- YAKC — lower, ≤ 0.25
- QMIR — lower, ≤ 0.25
- RVHE — lower, ≤ 0.25
- ENIR — lower, ≤ 0.25
- YDDY — lower, ≤ 0.25
- LSRI — lower, ≤ 0.25
- MTTF — higher, 11
- TQYQ — higher, 27.1
- RMMR — lower, ≤ 0.25
- DCYY — lower, ≤ 0.25
